Source: PMC4336329 (PLoS ONE, 2015)
About 14,000 (4.5%) of roughly 310,000 compounds showed an effect of 50% or more. The effect is printed as a negative number. Some of the results follow.

target: human ether-à-go-go-related gene (hERG) potassium channel (human, UniProt Q12809); assay: primary screen, population patch clamp on CHO cells stably expressing hERG
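Also: peak tail current of the secondary pulse compared with the same well before compound.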

Chain of human ether-à-go-go-related gene (hERG) potassium channel (Q12809 whole entry, looked up): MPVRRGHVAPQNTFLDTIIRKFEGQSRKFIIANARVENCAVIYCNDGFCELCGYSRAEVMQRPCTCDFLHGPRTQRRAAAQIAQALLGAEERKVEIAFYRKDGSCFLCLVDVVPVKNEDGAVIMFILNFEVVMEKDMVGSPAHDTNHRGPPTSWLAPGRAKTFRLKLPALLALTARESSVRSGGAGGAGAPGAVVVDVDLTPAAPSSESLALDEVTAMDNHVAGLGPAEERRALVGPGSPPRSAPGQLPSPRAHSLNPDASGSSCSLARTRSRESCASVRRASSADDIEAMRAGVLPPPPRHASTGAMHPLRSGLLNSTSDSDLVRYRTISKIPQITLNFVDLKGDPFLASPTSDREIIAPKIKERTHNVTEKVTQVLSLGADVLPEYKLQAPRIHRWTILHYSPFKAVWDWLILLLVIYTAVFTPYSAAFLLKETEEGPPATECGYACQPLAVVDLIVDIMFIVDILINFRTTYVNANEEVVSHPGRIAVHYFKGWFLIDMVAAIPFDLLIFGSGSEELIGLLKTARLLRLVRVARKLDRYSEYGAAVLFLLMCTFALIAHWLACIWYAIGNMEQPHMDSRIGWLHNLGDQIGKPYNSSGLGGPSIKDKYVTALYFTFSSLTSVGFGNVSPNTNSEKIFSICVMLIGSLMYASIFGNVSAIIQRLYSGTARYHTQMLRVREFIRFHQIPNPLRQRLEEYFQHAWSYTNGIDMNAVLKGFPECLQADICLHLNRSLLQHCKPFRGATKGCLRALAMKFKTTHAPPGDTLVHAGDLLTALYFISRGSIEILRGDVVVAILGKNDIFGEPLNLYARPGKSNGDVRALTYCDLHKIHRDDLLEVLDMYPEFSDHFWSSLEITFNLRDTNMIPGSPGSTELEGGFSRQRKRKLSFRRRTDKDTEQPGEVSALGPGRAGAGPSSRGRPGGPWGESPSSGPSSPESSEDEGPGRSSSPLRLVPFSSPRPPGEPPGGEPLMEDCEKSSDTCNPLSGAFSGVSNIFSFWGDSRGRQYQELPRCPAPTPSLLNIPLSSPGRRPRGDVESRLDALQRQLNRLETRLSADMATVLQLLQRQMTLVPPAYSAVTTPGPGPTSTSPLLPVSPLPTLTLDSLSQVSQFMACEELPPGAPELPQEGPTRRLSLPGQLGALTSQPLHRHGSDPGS

Row | SMILES | hERG current change (%, negative = inhibition) at 10uM [%]
1 | CC(=O)Oc1ccc2c(=O)c(Oc3ccccc3)c(C)oc2c1OC(C)=O | 11.5
2 | O=C(NCc1ccc2c(c1)OCO2)c1ccc(N2CCCCCC2)c([N+](=O)[O-])c1 | 4.72
3 | CC(=O)N/C(=C\c1ccc(Cl)cc1)C(=O)O | 3.81
4 | Cc1ccc(SCC(=O)NC(=O)NCc2ccccc2)c(C)c1 | 6
5 | CN1CCN(C(=O)c2ccc3c(=O)n(-c4ccc(F)cc4)c(=S)[nH]c3c2)CC1 | 19.8
6 | CCCCCn1c(=O)c(C(=O)Nc2nc3ccccc3[nH]2)c(O)c2ccccc21 | -13.6
7 | COc1ccc(S(=O)(=O)N2CCOCC2)cc1NC(=O)c1ccncc1 | 13.8
8 | COc1ccccc1CNC(=O)COC(=O)/C=C/c1ccc(OC(F)F)c(OC)c1 | 7.34
9 | CCSc1sc(CC)cc1C=O | 5.34
10 | CN(Cc1ccc(Cl)c(Cl)c1)C(=O)c1cccc(S(=O)(=O)N2CCN(Cc3ccccc3)CC2)c1 | -17.6
11 | O=C(O)CSc1ncnc2c1sc1nc(-c3ccccc3)c3c(c12)CCC3 | 10.3
12 | O=C(c1ccco1)N1CCN(S(=O)(=O)c2ccc(Br)cc2)CC1 | -8.4
13 | CCOc1ccccc1NC(=S)N1CCN(c2ccccc2)CC1 | 7.53
14 | COc1ccc(-c2csc(=Nc3ccccc3)n2CCO)cc1 | 6.86
15 | COc1ccc(CNC(=O)C(NC(C)=O)C(=O)Nc2ccc(OC)cc2)cc1 (stereo not shown) | 9.29
16 | COc1cc(C(=O)NCC(=O)NCCSc2ccc(Br)cc2)cc(OC)c1OC | -20.2
17 | Cc1[nH]nc(Nc2ccc(O)cc2)c1[N+](=O)[O-] | 23.6
18 | COc1ccc(OCCSCc2nnc(NC(=O)Nc3ccc(Cl)cc3)s2)cc1 | 4.36
19 | Cc1sc(C(C2C(=O)CC(C)(C)CC2=O)C2C(=O)CC(C)(C)CC2=O)cc1[N+](=O)[O-] | 13.1
20 | COC(=O)c1cc(NS(=O)(=O)c2ccc(N3CCC(C)CC3)c([N+](=O)[O-])c2)cc(C(=O)OC)c1 | -5.73
21 | CC(=O)NC(Cc1ccccc1)C(=O)N1CCN(C(=O)c2ccco2)CC1 (stereo not shown) | 14.7
22 | Oc1[nH]c2ccccc2c1/C=N/N1CCCCC1 | 12.4

Row | SMILES | hERG current change (%, negative = inhibition) at 10uM [%]
23 | Cc1cc(C)n2nc(S(=O)(=O)N(C)Cc3ccccc3)nc2n1 | -11.7
24 | Cc1cc(C)cc(-n2ncc3c2CCCC3NC(=O)CCCn2cncn2)c1 (stereo not shown) | 6.57
25 | CCN(CC)CCCN(C)C(=O)Cn1nc(Cc2ccncc2)c2ccccc2c1=O | 16.4
26 | O=C(CSc1nnnn1CCCO)Nc1ccc2c(c1)OCO2 | 16.3
27 | O=C(NC(=S)NCCc1ccccc1)c1cccc(Cl)c1 | 7.61
28 | COc1ccc(N2CCN(S(=O)(=O)CCNC(=O)COc3ccccc3OC)CC2)cc1 | -1.02
29 | NC(=O)C1CCN(CC(=O)Nc2ccccc2Sc2ccccc2)CC1 | -35.3
30 | CC(=O)c1cc(C#N)c(Oc2cc(C)cc(C)c2)nc1C | -4.94
31 | CC1CCc2sc(NC(=O)C3CC(Cl)=CCC3C(=O)O)c(C#N)c2C1 (stereo not shown) | 26.7
32 | Cc1ccc(-n2c(SCC(=O)N3CCOCC3)nnc2-c2cccnc2)cc1 | 3.74
33 | O=C1CC(N2CCN(c3ccccc3Cl)CC2)C(=O)N1c1cccc(F)c1 (stereo not shown) | 9.79
34 | Cc1ccc(COC(=O)CN2C(=O)NC3(CCCC3)C2=O)cc1 | 2.81
35 | O=C(c1ccccc1F)N1CCN(S(=O)(=O)c2ccc3c(c2)OCCO3)CC1 | -25.3
36 | Cc1nn(CC(=O)O)c(C)c1C | 4.97
37 | COCC(C)NC(=O)c1cccc(Cl)c1 (stereo not shown) | 16.4
38 | Cc1cc(C)n(NC(=S)NC2CCCCC2)c(=O)c1C#N | 4.28
39 | COc1cc(NC(=O)c2ccccc2)c(OC)cc1Cl | -8.77
40 | CC(NC(=O)CN1C(=O)NC2(CCCCCC2)C1=O)c1ccccc1 (stereo not shown) | 2.93
41 | O=C(Nc1ccccc1C(=O)Nc1ccc(Cl)cc1)c1cccnc1 | 6.53
42 | CCOc1ccc(N(CC(=O)Nc2ccc(Br)cc2)S(C)(=O)=O)cc1 | 1.75
43 | Nn1c(SCC(=O)NC2CCCCC2)nnc1-c1ccccc1F | -3.17
44 | Cc1cc(C)n(-c2nc(C)nc(NCc3ccccc3)n2)n1 | -86.9

Row | SMILES | hERG current change (%, negative = inhibition) at 10uM [%]
45 | O=C(CCc1nnc2ccc(N3CCC4(CC3)OCCO4)nn12)N1CCCCC1 | 16.7
46 | O=C(CSc1ccc(-c2cccnc2)nn1)N1CCCC1 | 9.32
47 | S=C(NCCN1CCOCC1)N/N=C/c1ccccc1 | 1.23
48 | Cc1cc(=O)oc2cc(OCC3CC(c4ccccc4)=NO3)ccc12 (stereo not shown) | -9.51
49 | COCCNS(=O)(=O)c1ccc(C)c(C)c1C | 5.71
50 | CCOC(=O)N1CCC(Nc2ccc(N3C(=O)C4CCCCC4C3=O)cc2[N+](=O)[O-])CC1 (stereo not shown) | -16.1
51 | O=[N+]([O-])c1ccc2[nH]nc(-c3ccccc3)c2c1 | 9.26
52 | Cc1nc2c(S(=O)(=O)c3ccccc3)cnn2c(C)c1C | 13.4
53 | CCC(C(=O)OCC(=O)Nc1cc(C)ccc1OC)c1ccccc1 (stereo not shown) | 5.62
54 | CC(=O)c1ccc2c(c1)OCCOCCOc1ccc(C(C)=O)cc1OCCOCCO2 | -76.6
55 | CC(=O)c1c(C(C)=O)c(C)n(Cc2ccccc2)c1C | -5.73
56 | Cc1ccc(C(=O)NNC(=O)CSc2nc(N)cc(N)n2)cc1 | 12.9
57 | COc1ccc(NC(=O)c2ccc3c(=O)n(-c4ccc(OC)cc4OC)c(=S)[nH]c3c2)cc1 | 18.7
58 | CCOc1ccc(C(=O)Cc2ccc3oc(C(=O)O)cc3c2)c(O)c1 | -2.66
59 | O=C(c1ccco1)N1CCN(C2c3ccccc3-c3ccccc32)CC1 | 2.49
60 | CC(=O)c1ccc(N2CCN(S(=O)(=O)c3c(C(=O)N4CCCC4)c(C)n(C)c3C)CC2)cc1 | 15.6
61 | COCCCNC(=O)CCc1nnc2ccc(N3CCC(C)CC3)nn12 | 10.9
62 | CC(C)c1ccc(NC(=O)c2cc(S(=O)(=O)N3CCCC3)c[nH]2)cc1 | -3.45
63 | Cc1ccccc1NC(=O)CNC(=O)c1ccc(C(F)(F)F)cc1 | -9.16
64 | O=C(O)c1cccc(-n2cnnn2)c1 | 8.14
65 | Clc1cnc(N/N=C/c2ccco2)c(Cl)c1 | -15.3
66 | CCN(CC)Cc1cc(C(=O)O)c(C)o1 | 19.4

Row | SMILES | hERG current change (%, negative = inhibition) at 10uM [%]
67 | N#Cc1cccc(C#N)c1Oc1ccc(S(=O)(=O)Nc2ccc(Cl)cc2)cc1 | 10.4
68 | CCN1C(=O)/C(=C\c2ccc(-c3cccc(C(=O)OC)c3)o2)SC1=Nc1ccc(C(=O)O)cc1 | 15.6
69 | Cc1nnc(SCC(=O)NC(=O)NCc2ccco2)s1 | 15.9
70 | CC(C)n1nc(C(=O)NCCc2ccc(S(N)(=O)=O)cc2)c2ccccc2c1=O | 4.68
71 | CC(=O)NC(CC(=O)NNC(=O)c1cccs1)c1ccccc1 (stereo not shown) | 14.7
72 | COc1ccc(C)cc1NC(=O)C1CCCN1S(=O)(=O)c1ccc2c(c1)CCC(=O)N2 (stereo not shown) | -50.8
73 | O=C(Nc1cccc(C(=O)O)c1)/C(=C\c1ccccc1)NC(=O)c1ccccc1Cl | 2.7
74 | COc1ccc(Cc2nc3ccc(C(=O)N4CCCCC4CCO)cc3o2)cc1 (stereo not shown) | 4.93
75 | Cc1cc(C(=O)Cn2nc(C(=O)O)c3ccccc3c2=O)c(C)n1CCc1ccc(F)cc1 | 1.17
76 | Cc1cc(C)n(-c2c(F)c(F)c(CO)c(F)c2F)n1 | 18.7
77 | COc1ccc(OC)c(CN2CCN(S(=O)(=O)c3ccc(NC(C)=O)cc3)CC2)c1.O=C(O)C(=O)O | -3.01
78 | COC(=O)c1cc(OC)c(OC)cc1NC(=O)c1ccc(C)o1 | -6.1
79 | COCCNS(=O)(=O)c1ccc(OCC(=O)N2CCc3ccccc3C2)c(Cl)c1 | -43.5
80 | CC1N(C(=O)N2CCOCC2)CCN1S(=O)(=O)c1cccc(C(F)(F)F)c1 (stereo not shown) | 12.1
81 | CC1=C(C(=O)c2ccccc2)C(c2cn(-c3ccccc3)nc2-c2ccc(Cl)cc2)NC(=S)N1 (stereo not shown) | 1.35
82 | O=C(NCc1ccccc1OC(F)(F)F)C1CCC(=O)N(Cc2ccccn2)C1 (stereo not shown) | 3.64
83 | CC1(c2ccc3noc(-c4ccc(F)cc4)c3c2)OCCO1 | -31.1
84 | O=C(Nc1cc2c(cc1Cl)OCCCO2)c1ccccc1 | -0.672
85 | Cn1c(=O)oc2cc(S(=O)(=O)N3CCCC(C(=O)NCc4cccs4)C3)ccc21 (stereo not shown) | -12.6
86 | Cc1cccc2c(C(=O)N3CCCCC3)cc(-c3ccccc3)nc12 | -4.27
87 | CC(Oc1ccc(Br)cc1)C(=O)Nc1nnc(C2CC2)s1 (stereo not shown) | -29.4
88 | COc1cccc(S(=O)(=O)NCc2ccc(C(=O)Nc3cccc(Cl)c3)cc2)c1 | 9.07
